This note sets out measurements from PubChem BioAssay AID488969 (Vanderbilt High Throughput Screening Facility, 2010).

The full ranking holds about 110,000 compounds; the median of “z-score” is about -0.1, and the highest 2% start at about 2. Some of the results follow.

This assay deals with Metabotropic glutamate receptor 8 (Rattus norvegicus) (UniProt P70579). The assay is described as follows: rat mGluR8 modulators via GIRK flux, primary screen, cell-based, thallium flux, HTS (AID 488969). The note with it: HEK293 rat mGluR8, GIRK (G protein-gated inwardly rectifying potassium channel) thallium flux, FluoZin2; at 10 µM; stronger effect = higher value; submaximal glutamate (EC20) added with thallium.
Chain of UniProt P70579 (P70579 whole entry, looked up): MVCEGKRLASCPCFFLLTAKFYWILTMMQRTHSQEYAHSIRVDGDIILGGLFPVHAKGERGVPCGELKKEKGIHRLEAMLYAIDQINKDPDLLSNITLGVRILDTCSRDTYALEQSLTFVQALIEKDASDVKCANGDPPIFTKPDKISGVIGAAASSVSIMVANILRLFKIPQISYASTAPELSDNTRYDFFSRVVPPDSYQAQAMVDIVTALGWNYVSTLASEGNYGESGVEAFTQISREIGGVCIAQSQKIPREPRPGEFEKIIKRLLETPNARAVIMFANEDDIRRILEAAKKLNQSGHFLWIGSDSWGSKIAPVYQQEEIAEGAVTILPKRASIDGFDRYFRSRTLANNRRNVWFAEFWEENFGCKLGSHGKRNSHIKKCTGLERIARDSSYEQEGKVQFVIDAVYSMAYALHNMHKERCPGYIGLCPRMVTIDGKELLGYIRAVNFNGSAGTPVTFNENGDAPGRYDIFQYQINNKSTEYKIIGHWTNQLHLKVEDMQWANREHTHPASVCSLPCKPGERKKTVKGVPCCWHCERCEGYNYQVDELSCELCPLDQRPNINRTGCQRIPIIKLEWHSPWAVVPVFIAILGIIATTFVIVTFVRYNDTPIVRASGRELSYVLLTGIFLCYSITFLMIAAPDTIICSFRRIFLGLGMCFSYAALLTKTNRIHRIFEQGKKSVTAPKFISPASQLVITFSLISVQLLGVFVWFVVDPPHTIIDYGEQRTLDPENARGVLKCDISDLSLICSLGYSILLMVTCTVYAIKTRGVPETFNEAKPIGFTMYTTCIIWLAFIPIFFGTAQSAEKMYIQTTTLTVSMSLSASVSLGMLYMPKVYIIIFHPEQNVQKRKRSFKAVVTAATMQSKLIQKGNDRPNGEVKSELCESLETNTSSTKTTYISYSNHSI
In the case of `CCOC(=O)c1nn(-c2ccc(OCC)cc2)c2nc(CC(C)C)c(C#N)c(=O)n12`, the z-score was -0.166.
`O=C(NCc1ccccc1)NC1(C(=O)Nc2ccc3c(c2)OCCO3)CCCCC1`: the z-score was -0.126.
Take `O=C(/C=C/c1ccco1)Nc1sc2c(c1C(=O)O)CCC2`: the z-score was -0.219.
`C=CCn1c(SCc2nc3sc4c(c3c(=O)[nH]2)CCCC4)nc2ccccc2c1=O`: the z-score amounted to 0.059.
With `CCOC(=O)N1CCN(C(=O)CS(=O)(=O)Cc2nc(-c3ccccc3C)oc2C)CC1`, the z-score turned out to be 0.176.
In turn, `CCOC(=O)C1CCCN(c2cc(C)nc3cc(-c4ccc(Cl)cc4)nn23)C1` (stereo not given) came in with a z-score of -0.161.
`Cc1nnc(NC(=O)CCC(=O)N2CCC(C)CC2)s1` yielded a z-score of -0.154.
`O=c1[nH]c2cc3c(cc2cc1C(c1nnnn1C1CCCCC1)N1CCSCC1)OCCO3` (stereo not given) returned a z-score of 0.278.
As to `N#Cc1c(N)nc(SC2CCCCC2=O)c(C#N)c1-c1ccco1` (stereo not given), the z-score is -0.131.
On to `CCOc1ccccc1-c1nc(-c2ccc(NC(=O)c3ccc(Br)o3)cc2)no1`, for which the z-score is -0.277.
With `Cc1csc(NC(=O)CSCC(=O)Nc2ccccc2)n1` the figure was 0.462; with `O=c1[nH]nc2c3ccccc3cnn12`, -0.408.
`C=CCN(Cc1cccc(OC)c1OC)S(=O)(=O)N(C)C`: the z-score was -0.164.
`Cc1nn(CCc2n[nH]c(=S)n2C)c(C)c1Br`: the z-score is -0.181.
`O=C(Nc1cccc(-c2nc3ccccc3o2)c1)c1ccc(N2C(=O)C3C4C=CC(C4)C3C2=O)cc1` (stereo not given) yielded a z-score of -0.233.
In the case of `Cc1sc(NC(=O)CSc2nnnn2C2CCCCC2)c(C#N)c1C`, the z-score is -0.147.
For the compound `O=c1c(Cc2ccc(F)cc2)c(O)ccn1Cc1ccc(Cl)cc1Cl`, the z-score amounted to 0.163.
For `Cc1c(NC(=S)NC(=O)COc2ccccc2)c(=O)n(-c2ccccc2)n1C` the value was -0.15; for `COc1ccc(N2CCN(C(=S)Nc3cc(C)ccc3C)CC2)cc1`, -0.671.
`CC1Oc2ccccc2N(CC(=O)NCC2CCCO2)C1=O` (stereo not given) gave a z-score of -0.413.
As for `COc1cccc(C(=O)c2c[nH]c(C(=O)NCc3cccs3)c2)c1`, the z-score was -0.05.
As to `Cc1ccc(C(=O)NC2CCCc3ccccc32)o1` (stereo not given), the z-score was -0.375.
The compound `COc1cc(C(=O)Oc2c(CN3CCOCC3)cc(Cl)c3cccnc23)cc(OC)c1OC` registered a z-score of -0.766.
`COCC(C)NC(=O)CSc1nc2ccccc2n1CCc1ccccc1` (stereo not given) registered a z-score of -0.151.
`C=CCNC(=O)CSc1nc2sc(C)c(C)c2c(=O)[nH]1` had a z-score of -0.119.
For `COc1ccc2c(c1)-c1nc(/N=C/c3cccc(OC)c3O)sc1CC2` the value was -0.372; for `COc1ccccc1CNC(=O)CSc1ccc(Br)cc1`, 0.558; for `COc1ccc(/C=C2\CCc3ccccc3C2=O)cc1Cn1nc(C)c(Br)c1C`, -0.109.
As to `O=C(c1ccc(Cl)cc1)C1CCN(C(=O)NC2CCCCC2)CC1`, the z-score is -0.251.
With `CC1CCC(NC(=O)CN2C(=O)C3CCCN3c3ncc(Cl)cc32)CC1` (stereo not given) the figure was -1.48; with `CCOc1ccc2noc3c2c1C(=O)c1ccccc1-3`, -2.43.
With `O=C(O)/C=C/C(=O)N(Cc1ccccc1)Cc1ccco1` the figure was -0.334.
In turn, `COc1cccc(Nc2nc3ccccc3nc2NS(=O)(=O)c2cccs2)c1` gave a z-score of -0.314.
Compound `Cc1c(Cl)cccc1-c1ccc(/C=N/n2cnnc2)o1` had a z-score of -0.29.
`O=C(Cn1nnc(-c2ccc(S(=O)(=O)N3CCCC3)cc2)n1)Nc1ccccc1-n1cccc1`: the z-score was -0.35.
For `O=C(Nc1ccc(S(=O)(=O)N2CCCC2)cc1)c1ccc(CN2CCOCC2)cc1`, the z-score is -0.076.
Compound `COc1ccc(C2C3CCCCC3(O)CCN2C(=O)c2cccs2)cc1` (stereo not given) had a z-score of 0.695.
Compound `CCOC(=O)c1nnn(-c2nonc2N)c1CN1CCCCCC1` gave a z-score of 0.089.
With `CCNC(=O)NC(=O)C(C)On1nnc2ccc(S(=O)(=O)N(CC)CC)cc21` (stereo not given) the figure was -0.438; with `CCCN1CCN(CCCNC(=O)C2CCCN(c3nc4ccc(OCC)cc4s3)C2)CC1` (stereo not given), -0.2.
With `COc1ccc(C(C)=O)cc1COC(=O)c1cc(C)oc1C` the figure was -0.947; with `O=C(Nc1ccc2c(c1)OCCO2)N1CCN(c2ccccc2)CC1`, 0.0611.
In the case of `C/C=C/C(=O)OCC(=O)Nc1cc(-c2cc(C)c(C)cc2C)nn1-c1ccccc1`, the z-score was determined as 0.753.
In turn, `CCC(=O)NC(=S)Nc1ccc(OC)cc1OC` showed a z-score of -0.0781.
As to `O=C(CSc1nnnn1C1CCCC1)Nc1ccc2c(c1)OCCO2`, the z-score is -0.282.
In the case of `COc1ccc(NS(=O)(=O)c2ccc3nc(COc4ccc(Cl)c(C)c4)[nH]c3c2)cc1`, the z-score was -0.0225.
For `Cc1cc(C)nc(NC(=O)c2cccc([N+](=O)[O-])c2)c1` the value was 0.127.
Compound `CCN(CC)S(=O)(=O)c1cccc(N=NC2=C(O)CCCC2=O)c1` came in with a z-score of 0.417.
On to `COc1ccc(C(=O)Oc2cc3c4c(c2)C(C)=CC(C)(C)N4C(=O)C3=O)cc1OC`, for which the z-score was -0.442.
Compound `CCOC(=O)c1c(NC(=O)Cn2cnc([N+](=O)[O-])n2)sc2c1CCC(C)C2` (stereo not given) had a z-score of -0.152.
`COc1ccc(Cl)cc1Nc1nc(-c2sc(NC(=O)CC(C)C)nc2C)cs1` showed a z-score of -0.277.
For `O=C(NCCN1CCOCC1)Nc1ccc(Cl)cc1Cl`, the z-score is -0.395.
`CC12CCC(C(=O)Nc3nccs3)(OC1=O)C2(C)C` (stereo not given) yielded a z-score of -0.842.
`CCOC(=O)c1oc2ccccc2c1N` returned a z-score of -0.0615.
For `Cc1ccc(S(=O)(=O)N2CCN(C(=O)c3cc(=O)[nH]c4ccccc34)CC2)c(C)c1` the value was -0.79; for `COc1ccc(-c2nc(-c3cccc(C)c3)no2)cc1OC`, 1.7.
With `O=C(NCc1ccco1)c1cc2cc3ccc(Cl)cc3nc2o1` the figure was -0.249; with `CC(C)CNS(=O)(=O)c1ccc(OCC(=O)Nc2ccc3c(c2)OCO3)c(Cl)c1`, -0.19; with `O=C(c1cc(Cl)ccc1Cl)N1CCN(c2ccccn2)CC1`, 0.601.
In the case of `Cc1ccc(C(=O)N/C(=C\c2cccs2)C(=O)N2CCCCCC2)cc1`, the z-score was -0.422.
As to `CC(C)CC(=O)NC(=S)Nc1ccccc1C(=O)Nc1ccccc1`, the z-score was -0.037.
`COc1ccc(-c2oc(/N=C/N3CCOCC3)c(C#N)c2-c2ccc(OC)cc2)cc1` yielded a z-score of 0.0409.
For the compound `O=C(CSc1nc2ccccc2s1)NCCOc1ccccc1`, the z-score came to 0.279.
`CCC(C)(c1nnnn1-c1c(C)cccc1C)N(N=O)c1cccc(C(F)(F)F)c1` (stereo not given) displayed a z-score of 0.17.
For `Cc1cc(=O)[nH]c(Cc2ccc(OC(C)C)cc2)n1` the value was -0.0361.
As to `CCc1cc(=O)oc2c(C)c(OCC(=O)N3CCCc4ccccc43)ccc12`, the z-score is -1.19.
For `CCc1nc(N)c(C#N)c(-c2ccncc2)c1C` the value was 0.0413; for `COC(=O)C(Cc1ccc(O)cc1)NC(=O)C(C)Oc1ccccc1` (stereo not given), -0.425.
`CCC1(CC)C(=O)C(C)(C)C(=O)OC1c1ccccn1` (stereo not given) gave a z-score of 0.852.
For `CCCCc1nn(-c2cc(Cl)ccc2OC)c2c1C(=O)CCC2` the value was -1.66.
